This is an account of results in PMC9638944, “ATM-mediated ELL phosphorylation enhances its self-association through increased EAF1 interaction and inhibits global transcription during genotoxic stress” (Nucleic Acids Research, 2022).

The chains behind the UniProt entries cited, without tags or fusion partners.
UniProt P50750: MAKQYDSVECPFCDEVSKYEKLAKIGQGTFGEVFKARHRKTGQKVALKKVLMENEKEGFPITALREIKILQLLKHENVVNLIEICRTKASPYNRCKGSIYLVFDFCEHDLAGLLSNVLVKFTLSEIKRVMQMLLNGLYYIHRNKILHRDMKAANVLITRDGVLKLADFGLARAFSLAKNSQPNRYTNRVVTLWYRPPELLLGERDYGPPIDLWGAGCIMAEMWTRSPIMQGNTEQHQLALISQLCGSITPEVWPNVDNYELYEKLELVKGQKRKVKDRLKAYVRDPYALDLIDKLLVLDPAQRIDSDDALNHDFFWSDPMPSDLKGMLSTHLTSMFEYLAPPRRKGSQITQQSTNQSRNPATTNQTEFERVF
UniProt P42568: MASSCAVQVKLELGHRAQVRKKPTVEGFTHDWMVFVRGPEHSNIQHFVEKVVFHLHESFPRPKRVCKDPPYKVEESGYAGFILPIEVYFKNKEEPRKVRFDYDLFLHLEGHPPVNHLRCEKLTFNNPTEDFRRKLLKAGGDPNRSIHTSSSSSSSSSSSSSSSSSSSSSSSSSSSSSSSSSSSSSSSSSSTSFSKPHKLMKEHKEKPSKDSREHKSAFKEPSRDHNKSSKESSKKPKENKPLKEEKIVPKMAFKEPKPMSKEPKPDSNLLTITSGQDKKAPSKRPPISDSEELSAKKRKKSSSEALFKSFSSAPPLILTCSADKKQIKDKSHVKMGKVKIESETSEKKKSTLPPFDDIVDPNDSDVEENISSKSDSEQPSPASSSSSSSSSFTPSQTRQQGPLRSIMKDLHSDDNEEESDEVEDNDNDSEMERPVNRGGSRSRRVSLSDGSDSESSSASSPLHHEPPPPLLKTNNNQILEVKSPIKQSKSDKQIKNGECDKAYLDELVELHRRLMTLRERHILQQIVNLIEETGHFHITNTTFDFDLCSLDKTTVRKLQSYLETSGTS
UniProt Q9Y2F5: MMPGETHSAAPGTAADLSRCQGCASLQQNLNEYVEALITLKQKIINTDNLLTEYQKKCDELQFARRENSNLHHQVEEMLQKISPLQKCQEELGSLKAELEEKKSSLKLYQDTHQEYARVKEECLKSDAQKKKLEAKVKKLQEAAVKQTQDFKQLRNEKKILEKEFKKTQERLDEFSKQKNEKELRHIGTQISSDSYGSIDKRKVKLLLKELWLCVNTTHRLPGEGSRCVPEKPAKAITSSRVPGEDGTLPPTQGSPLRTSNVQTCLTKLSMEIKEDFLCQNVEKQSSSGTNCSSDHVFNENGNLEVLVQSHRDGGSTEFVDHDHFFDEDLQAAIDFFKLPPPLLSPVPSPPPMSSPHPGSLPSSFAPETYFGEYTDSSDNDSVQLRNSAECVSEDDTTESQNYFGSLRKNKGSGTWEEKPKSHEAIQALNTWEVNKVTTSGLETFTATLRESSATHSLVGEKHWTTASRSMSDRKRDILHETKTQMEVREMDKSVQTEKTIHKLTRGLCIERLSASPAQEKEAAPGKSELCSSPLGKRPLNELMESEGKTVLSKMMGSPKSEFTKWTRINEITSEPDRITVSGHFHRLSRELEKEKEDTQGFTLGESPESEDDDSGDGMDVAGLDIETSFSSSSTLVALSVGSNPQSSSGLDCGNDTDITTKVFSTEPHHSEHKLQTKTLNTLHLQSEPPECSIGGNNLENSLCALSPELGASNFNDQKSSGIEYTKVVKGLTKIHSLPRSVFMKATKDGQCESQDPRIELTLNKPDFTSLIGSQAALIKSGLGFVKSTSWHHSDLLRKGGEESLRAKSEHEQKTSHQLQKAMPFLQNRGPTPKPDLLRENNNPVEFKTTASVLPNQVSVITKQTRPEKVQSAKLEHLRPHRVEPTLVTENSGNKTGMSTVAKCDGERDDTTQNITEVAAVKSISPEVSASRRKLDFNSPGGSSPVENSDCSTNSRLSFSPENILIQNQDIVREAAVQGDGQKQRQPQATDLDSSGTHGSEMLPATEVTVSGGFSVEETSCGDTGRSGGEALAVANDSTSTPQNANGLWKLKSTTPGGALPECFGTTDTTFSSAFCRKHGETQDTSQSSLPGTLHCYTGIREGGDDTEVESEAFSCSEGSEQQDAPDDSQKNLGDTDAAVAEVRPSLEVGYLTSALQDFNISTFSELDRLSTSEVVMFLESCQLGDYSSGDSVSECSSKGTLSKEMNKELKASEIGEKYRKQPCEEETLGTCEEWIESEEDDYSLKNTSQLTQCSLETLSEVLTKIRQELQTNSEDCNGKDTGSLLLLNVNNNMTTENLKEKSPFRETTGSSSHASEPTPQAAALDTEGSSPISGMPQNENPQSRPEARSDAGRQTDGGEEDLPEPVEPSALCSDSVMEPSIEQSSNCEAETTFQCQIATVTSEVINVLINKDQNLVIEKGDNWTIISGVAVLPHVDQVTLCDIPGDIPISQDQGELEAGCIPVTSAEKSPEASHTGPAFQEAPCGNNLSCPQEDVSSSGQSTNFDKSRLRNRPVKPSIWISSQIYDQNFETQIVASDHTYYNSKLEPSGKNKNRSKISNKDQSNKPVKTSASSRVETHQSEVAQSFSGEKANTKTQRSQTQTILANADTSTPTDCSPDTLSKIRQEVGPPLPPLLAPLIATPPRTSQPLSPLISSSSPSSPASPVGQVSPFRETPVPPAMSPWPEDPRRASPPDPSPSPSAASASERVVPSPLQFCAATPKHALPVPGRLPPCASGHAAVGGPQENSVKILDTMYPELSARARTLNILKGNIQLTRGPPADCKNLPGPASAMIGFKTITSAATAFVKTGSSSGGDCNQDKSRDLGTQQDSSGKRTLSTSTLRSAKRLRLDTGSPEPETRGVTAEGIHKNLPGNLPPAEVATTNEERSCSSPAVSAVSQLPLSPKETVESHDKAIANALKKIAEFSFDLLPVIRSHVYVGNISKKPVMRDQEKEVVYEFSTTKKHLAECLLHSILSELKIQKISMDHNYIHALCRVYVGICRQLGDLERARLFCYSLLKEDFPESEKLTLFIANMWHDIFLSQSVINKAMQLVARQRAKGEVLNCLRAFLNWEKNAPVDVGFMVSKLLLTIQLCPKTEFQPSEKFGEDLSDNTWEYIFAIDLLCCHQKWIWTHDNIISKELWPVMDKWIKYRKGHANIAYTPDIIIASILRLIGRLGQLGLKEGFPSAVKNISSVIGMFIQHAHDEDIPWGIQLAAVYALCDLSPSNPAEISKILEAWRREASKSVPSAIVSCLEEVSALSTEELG
UniProt Q96CJ1: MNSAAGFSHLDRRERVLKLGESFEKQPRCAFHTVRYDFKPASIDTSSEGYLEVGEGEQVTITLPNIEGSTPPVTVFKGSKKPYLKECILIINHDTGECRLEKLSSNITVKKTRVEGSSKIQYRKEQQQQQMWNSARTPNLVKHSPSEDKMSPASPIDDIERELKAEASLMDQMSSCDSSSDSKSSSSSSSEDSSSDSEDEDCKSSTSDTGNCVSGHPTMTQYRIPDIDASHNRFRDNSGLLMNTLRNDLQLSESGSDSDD

These are yes or no findings as the source states them, for the method shown. Binding seen in cells or lysates may run through a third protein. Some entries that bind do so weakly or less than the wild type. For some of these results: Where a sequence is shown, tags or fusion partners need not be part of it.

One experiment deals with T1, FLAG-ELL (Sf9) (human) (UniProt P55199).
T1 sequence: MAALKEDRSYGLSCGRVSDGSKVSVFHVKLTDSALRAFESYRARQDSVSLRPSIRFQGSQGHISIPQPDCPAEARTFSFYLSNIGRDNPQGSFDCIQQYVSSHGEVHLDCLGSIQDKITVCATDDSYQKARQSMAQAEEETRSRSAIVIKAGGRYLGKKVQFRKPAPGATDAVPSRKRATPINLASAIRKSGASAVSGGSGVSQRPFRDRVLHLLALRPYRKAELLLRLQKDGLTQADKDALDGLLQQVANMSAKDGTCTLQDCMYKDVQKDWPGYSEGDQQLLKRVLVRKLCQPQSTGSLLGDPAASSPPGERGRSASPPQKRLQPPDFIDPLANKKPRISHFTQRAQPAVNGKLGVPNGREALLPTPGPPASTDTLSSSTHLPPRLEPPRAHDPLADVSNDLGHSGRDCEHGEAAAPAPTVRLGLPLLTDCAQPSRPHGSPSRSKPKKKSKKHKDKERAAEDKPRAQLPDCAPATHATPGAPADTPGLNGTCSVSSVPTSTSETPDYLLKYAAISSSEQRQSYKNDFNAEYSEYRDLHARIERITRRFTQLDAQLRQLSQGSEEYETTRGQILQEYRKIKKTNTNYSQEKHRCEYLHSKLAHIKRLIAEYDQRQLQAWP
Put plainly: co-IP; Sf9 cells co-infected with baculoviruses, lysis buffer with 300 mM KCl and 0.1% NP-40; first round of precipitation by the tagged ELL (FLAG-ELL or His-ELL), 12 h, 4°C; immunoblot. (A western blot detects proteins with antibodies after separation by electrophoresis.)

A further experiment deals with T2, His-ELL (Sf9) (human) (UniProt P55199).
T2 sequence: T1 sequence
Described as above.

Experiment [1] has as its target T3, FLAG-ELL (human) (UniProt P55199).
T3 sequence: T1 sequence
Put plainly: co-IP; 293T cells transiently expressing epitope-tagged proteins, harvested 48 h after transfection; lysis buffer 20 mM Tris-Cl pH 8, 20% glycerol, 2 mM EDTA, 150 mM KCl, 0.1% NP-40; anti-FLAG M2 or anti-HA agarose, 12 h, 4°C; immunoblot. Also the first round of the tandem purifications from 293T. Some panels with doxorubicin, IR, ATM inhibitor, EAF1 or EAF2 knock-down or over-expression.

The target of experiment [2] is ELL•CDK9•SEC (293T) (human) (UniProt P55199+P50750). Put plainly: co-IP; tandem affinity purification from 293T cells: second round (His-CDK9, or the second tagged ELL) from the eluate of the first round; immunoblot.
The target of experiment [3] is T3, FLAG-ELL (human). Put plainly: co-IP; 293T cells transiently expressing epitope-tagged proteins, harvested 48 h after transfection; lysis buffer 20 mM Tris-Cl pH 8, 20% glycerol, 2 mM EDTA, 150 mM KCl, 0.1% NP-40; anti-FLAG M2 or anti-HA agarose, 12 h, 4°C; immunoblot. Also the first round of the tandem purifications from 293T. Some panels with doxorubicin, IR, ATM inhibitor, EAF1 or EAF2 knock-down or over-expression. The source holds these as a separate data set.

Another experiment has as its target FLAG-EAF1 (Sf9) (human) (UniProt Q96JC9). Description: co-IP; Sf9 cells co-infected with baculoviruses; second round of precipitation (His-CDK9, AF9 or FLAG-EAF1) from the eluate of the first round; bound material and supernatant immunoblotted.
For experiment [4], the target named is T4, endogenous ELL (human (endogenous in 293T)) (UniProt P55199).
T4 sequence: T1 sequence
Put plainly: cross-linking; 293T whole cell lysate with 0.03–0.01% glutaraldehyde at room temperature, SDS-PAGE, immunoblot; one panel with over-expressed EAF1.

The target in experiment [5] is T3, FLAG-ELL (human). Description: co-IP; tandem affinity purification from 293T cells: second round (His-CDK9, or the second tagged ELL) from the eluate of the first round; immunoblot.

For AF9 (Sf9) (from UniProt P42568 1-568), in the experiment with FLAG-ELL (Sf9) (human), the binding entry is given as “binds”.
On to “FLAG-EAF1 (Sf9) (from UniProt Q96JC9 1-268)”, for which the binding result in the experiment with His-ELL (Sf9) (human) was “binds”.
Regarding “His-CDK9 (Sf9) (from UniProt P50750 1-372)”, the binding result in the experiment with FLAG-ELL (Sf9) (human) was “binds”.
As for His-CDK9 (from UniProt P50750 1-372), the binding result in the experiment with FLAG-ELL (human) [1] was “binds”.
Same read-out and setting: for ICE1 (from UniProt Q9Y2F5 1-2266) the value was “binds”.
Still for that read-out and setting: the same measure for “ectopically expressed EAF1 (from UniProt Q96JC9 1-268)”: “binds”; for “over-expressed EAF2 (from UniProt Q96CJ1 1-260)”: “binds”.

B1: ENL (protein, UniProt Q03111 1-559)
chain: MDNQCTVQVRLELGHRAQLRKKPTTEGFTHDWMVFVRGPEQCDIQHFVEKVVFWLHDSFPKPRRVCKEPPYKVEESGYAGFIMPIEVHFKNKEEPRKVCFTYDLFLNLEGNPPVNHLRCEKLTFNNPTTEFRYKLLRAGGVMVMPEGADTVSRPSPDYPMLPTIPLSAFSDPKKTKPSHGSKDANKESSKTSKPHKVTKEHRERPRKDSESKSSSKELEREQAKSSKDTSRKLGEGRLPKEEKAPPPKAAFKEPKMALKETKLESTSPKGGPPPPPPPPPRASSKRPATADSPKPSAKKQKKSSSKGSRSAPGTSPRTSSSSSFSDKKPAKDKSSTRGEKVKAESEPREAKKALEVEESNSEDEASFKSESAQSSPSNSSSSSDSSSDSDFEPSQNHSQGPLRSMVEDLQSEESDEDDSSSGEEAAGKTNPGRDSRLSFSDSESDNSADSSLPSREPPPPQKPPPPNSKVSGRRSPESCSKPEKILKKGTYDKAYTDELVELHRRLMALRERNVLQQIVNLIEETGHFNVTNTTFDFDLFSLDETTVRKLQSCLEAVAT
For B1, the binding result (in experiment [2]; with FLAG-ELL (human) [3]) was “binds” in each case.

B2: His-ELL (Sf9) (protein, UniProt P55199 1-621)
chain: T1 sequence
As to B2, in the experiment with FLAG-EAF1 (Sf9) (human), the binding result was “binds”.

B3: endogenous ELL (protein, UniProt P55199 1-621)
chain: T1 sequence
B3: in experiment [4], the binding entry is on record as “binds”.

B4: HA-ELL (protein, UniProt P55199 1-621)
chain: T1 sequence
As to B4, the binding result in the experiment with FLAG-ELL (human) [5] and with FLAG-ELL (human) [3] was “binds” each time.
